Assay results published in PubChem BioAssay (Tox21).
“And” between values parts separate entries of the source, which are not always exact repeats. Equal values may be shown once. This is a selection; strong and weak results do not stand in their true shares. Records with an inconclusive call do not appear. The source made the active and inactive calls. Unless noted, calls come from the whole dose curve.

What was measured:
[1] = target: Acetylcholinesterase (Homo sapiens) (UniProt P22303); test: Acetylcholinesterase (AChE) small molecule antagonists: colormetric cell-based qHTS assay (AID 1347395); conditions: SH-SY5Y cells AChE activity, colorimetric (Ellman); note: nearly all actives have a fitted effect of over 30% in size
Outline: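 SH-SY5Y cells; cpd 30 min 37 C; + DTNB/acetylthiocholine, 90 min 37 C; colorimetric thiocholine read; qHTS.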

[2] = target: Acetylcholinesterase (Homo sapiens) (UniProt P22303); test: Acetylcholinesterase (AChE) small molecule antagonists: enzyme-based qHTS assay (AID 1347397); conditions: AChE enzyme activity inhibition; note: nearly all actives have a fitted effect of over 55% in size
Outline: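 Compound or DMSO vehicle was pin-transferred onto recombinant human AChE (50 mU/mL as dispensed) and left 30 min at room temperature. Acetylthiocholine with DTNB then started the reaction, read colorimetrically 10 min later.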

[3] = target: Acetylcholinesterase (Homo sapiens) (UniProt P22303); test: Acetylcholinesterase (AChE) small molecule antagonists: fluorescence cell-based qHTS assay (AID 1347398); conditions: SH-SY5Y cells, AChE activity; note: nearly all actives have a fitted effect of over 50% in size
Description: National Center for Advancing Translational Sciences [NCATS]
Division of Preclinical Innovation [DPI]
U.S. Environmental Protection Agency [EPA]
National Institutes of Environmental Health Sciences [NIEHS]
National Toxicology Program [NTP]
U.S. Food and Drug Administration [FDA]
Acetylcholinesterase (AChE) is the primary cholinesterase in the body that hydrolyzes a key neurotransmitter, acetylcholine. Inhibition of AChE activity can lead to neurotoxicity. Known inhibitors of AChE include organophosphorous pesticides (OP), chemical warfare agents, drugs, and various phytochemicals.
A homogenous cell-based assay using Amplitetrade mark Fluorimetric Acetylcholinesterase Assay Kit *Green Fluorescence* (AAT Bioquest, Sunnyvale, CA) was used to evaluate the chemicals in the Tox21 10K library that inhibit AChE activity. The assay uses Thiolite Green to quantify the thiocholine produced from the hydrolysis of acetylthiocholine by AChE from the SH-SY5Y cells. […] The fluorescence intensity of Thiolite Green is used to measure AChE activity. Its signal can be easily read by a fluorescence microplate reader at Ex/Em = 490/520 nm. […]
For cell-based AChE assay, 2,000 SH-SY5Y cells in 4 uL/well were dispensed into black, clear-bottom 1536-well plates using a Multidrop Combi (Thermo Scientific) dispenser. […] Fluorescent intensity (Ex/Em = 490/520 nm) was measured using an Envision plate reader (PerkinElmer, MA).

[4] = target: Cytochrome P450 2C19 (Homo sapiens) (UniProt P33261); test: Cytochrome P450 Family 2 Subfamily C Member 19 (CYP2C19) small molecule antagonists: luciferase reporter qHTS assay (AID 1671197; active = well fitted inhibition curve with a large enough effect in the repeat runs; note: nearly all actives have a fitted effect of over 65% in size); conditions: P450-Glo CYP2C19 enzyme, luciferin luminescence, 1 h
Outline: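 Inhibition of CYP2C19 was scored from loss of luminescence in a P450-Glo proluciferin substrate assay, NADPH-started and run 1 h at 37C, with ketoconazole as positive control.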

[5] = target: Cytochrome P450 2C9 (Homo sapiens) (UniProt P11712); test: Cytochrome P450 Family 2 Subfamily C Member 9 (CYP2C9) small molecule antagonists: luciferase reporter qHTS assay (AID 1671198; active = well fitted inhibition curve with a large enough effect in the repeat runs; note: nearly all actives have a fitted effect of over 50% in size); conditions: P450-Glo CYP2C9 enzyme assay, luciferin luminescence
Outline: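 CYP2C9 activity was measured with a P450-Glo proluciferin substrate. Enzyme–substrate mix was held with compound for 10 min at room temperature, then NADPH regeneration solution was added for 1 h at 37C. Luciferin product was read as luminescence.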

[6] = target: Cytochrome P450 1A2 (Homo sapiens) (UniProt P05177); test: Cytochrome P450 Family 1 Subfamily A Member 2 (CYP1A2) small molecule antagonists: luciferase reporter qHTS assay (AID 1671199; active = well fitted inhibition curve with a large enough effect in the repeat runs; note: nearly all actives have a fitted effect of over 50% in size); conditions: P450-Glo CYP1A2 enzyme, luciferin luminescence, 1 h
Outline: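 Luminescence from luciferin formed by CYP1A2 from a proluciferin substrate, read 20 min after detection reagent. Compound was pre-incubated 10 min with enzyme-substrate, and reaction started with NADPH regeneration solution for 1 h at room temperature; furafylline control.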
Potency is the fitted concentration of half-maximal effect.

UniProt P22303, sequence (P22303 whole entry, looked up): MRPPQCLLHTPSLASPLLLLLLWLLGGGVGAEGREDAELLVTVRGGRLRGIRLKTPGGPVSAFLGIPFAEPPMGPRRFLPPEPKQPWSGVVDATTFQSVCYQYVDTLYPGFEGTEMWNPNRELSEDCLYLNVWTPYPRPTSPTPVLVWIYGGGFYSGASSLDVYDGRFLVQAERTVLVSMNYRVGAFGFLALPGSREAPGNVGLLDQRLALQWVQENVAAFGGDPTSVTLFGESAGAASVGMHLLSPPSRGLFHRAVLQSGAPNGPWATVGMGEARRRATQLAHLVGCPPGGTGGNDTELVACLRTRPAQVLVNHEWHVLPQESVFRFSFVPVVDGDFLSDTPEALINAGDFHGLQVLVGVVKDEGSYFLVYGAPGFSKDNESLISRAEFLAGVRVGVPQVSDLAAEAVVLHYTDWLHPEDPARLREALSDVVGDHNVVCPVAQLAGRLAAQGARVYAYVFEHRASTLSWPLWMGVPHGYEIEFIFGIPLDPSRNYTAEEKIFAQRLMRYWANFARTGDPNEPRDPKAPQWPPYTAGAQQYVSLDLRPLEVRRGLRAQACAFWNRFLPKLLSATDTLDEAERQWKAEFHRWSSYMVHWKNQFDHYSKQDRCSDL
UniProt P11712, sequence (P11712 whole entry, looked up): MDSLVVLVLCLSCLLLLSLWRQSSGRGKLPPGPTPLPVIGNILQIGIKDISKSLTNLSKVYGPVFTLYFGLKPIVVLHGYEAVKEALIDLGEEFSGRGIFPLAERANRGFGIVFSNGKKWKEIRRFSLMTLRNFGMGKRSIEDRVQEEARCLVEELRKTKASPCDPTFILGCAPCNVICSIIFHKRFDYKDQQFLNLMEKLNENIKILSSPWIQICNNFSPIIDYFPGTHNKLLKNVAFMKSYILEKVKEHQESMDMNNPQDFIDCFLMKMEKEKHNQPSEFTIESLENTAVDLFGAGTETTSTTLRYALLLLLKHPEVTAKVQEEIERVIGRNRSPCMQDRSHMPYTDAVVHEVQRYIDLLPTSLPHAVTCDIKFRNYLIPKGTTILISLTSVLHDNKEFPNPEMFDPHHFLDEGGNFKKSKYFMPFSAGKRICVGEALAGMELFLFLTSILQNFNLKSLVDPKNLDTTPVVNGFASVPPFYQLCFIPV
UniProt P33261, sequence (P33261 whole entry, looked up): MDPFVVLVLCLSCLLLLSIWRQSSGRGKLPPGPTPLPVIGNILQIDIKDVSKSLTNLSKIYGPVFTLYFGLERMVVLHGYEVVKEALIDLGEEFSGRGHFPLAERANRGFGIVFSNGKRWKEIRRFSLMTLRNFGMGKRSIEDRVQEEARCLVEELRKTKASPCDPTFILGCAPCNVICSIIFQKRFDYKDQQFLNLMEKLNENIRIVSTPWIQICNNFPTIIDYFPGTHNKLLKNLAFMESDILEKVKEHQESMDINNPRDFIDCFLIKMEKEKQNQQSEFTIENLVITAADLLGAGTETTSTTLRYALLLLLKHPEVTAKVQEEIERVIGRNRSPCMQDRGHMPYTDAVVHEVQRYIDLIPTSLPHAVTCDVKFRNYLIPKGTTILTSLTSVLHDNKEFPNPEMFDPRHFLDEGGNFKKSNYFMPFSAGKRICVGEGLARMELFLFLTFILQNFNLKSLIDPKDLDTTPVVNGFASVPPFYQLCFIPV
UniProt P05177, sequence (P05177 whole entry, looked up): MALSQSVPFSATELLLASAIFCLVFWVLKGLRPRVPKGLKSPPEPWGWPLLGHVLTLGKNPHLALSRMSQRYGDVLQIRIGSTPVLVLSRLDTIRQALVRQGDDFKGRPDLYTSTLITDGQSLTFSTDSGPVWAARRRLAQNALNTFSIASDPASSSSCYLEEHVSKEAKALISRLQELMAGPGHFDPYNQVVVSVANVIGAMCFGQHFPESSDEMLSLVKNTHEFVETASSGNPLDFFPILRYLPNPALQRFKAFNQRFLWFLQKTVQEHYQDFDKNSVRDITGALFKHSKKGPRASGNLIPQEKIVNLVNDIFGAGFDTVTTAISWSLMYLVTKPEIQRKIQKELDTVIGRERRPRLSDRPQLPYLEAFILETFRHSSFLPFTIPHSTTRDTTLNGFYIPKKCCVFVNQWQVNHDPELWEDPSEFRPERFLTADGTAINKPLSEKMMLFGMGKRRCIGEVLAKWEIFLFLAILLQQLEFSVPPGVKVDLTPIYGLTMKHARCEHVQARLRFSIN

For `CC(C)(C)CC(C)(C)c1ccc(OCCOCC[N+](C)(C)Cc2ccccc2)cc1`, the Potency [1] was active: 35.5 µM and active: 17.4 µM, the Potency [2] was active: 25.2 µM and active: 27.5 µM and the Potency [3] was active: 5.02 µM and active: 3.47 µM.

With `CCCCCCCCCCCCCCCC[n+]1ccccc1` the Potency [1] was active: 74.3 µM and active: 71 µM and active: 78.6 µM, the Potency [2] was active: 35.6 µM [middle of 4 runs] and the Potency [3] was active: 27.5 µM [middle of 4 runs].

In the case of `Clc1ccc(CSC(Cn2ccnc2)c2ccc(Cl)cc2Cl)cc1` (stereo unspecified), the Potency [4] is reported as active: 174 nM, the Potency [5] is reported as active: 436 nM and the Potency [6] is reported as active: 6.92 µM.

`Clc1ccc(CO/N=C(\Cn2ccnc2)c2ccc(Cl)cc2Cl)c(Cl)c1` was tested, and the Potency [4] was active: 19.5 nM and the Potency [5] was active: 490 nM.
